# Whole data set: some 33,000 sequences, median “E-score (-0.5 to 0.5)” near -0.016, cut for the highest 2% near 0.31. This is one part of the list.
# Biological target: Cst6 (UniProt P40535)
# Assay: PBM E-score (8-mer binding enrichment) (E-score (-0.5 to 0.5)); higher = stronger / more preferred TF binding; most listed sequences are background and not binding sites
# Conditions: protein concentration: 200 nM; construct: GST-DNA-binding domain
# Description: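 Universal 'all 10-mer' protein binding microarrays (Agilent AMADID 015681) probed with GST-tagged S. cerevisiae TFs (full-length or DBD) made by in vitro transcription/translation (PURExpress), about 100-200 nM. Bound TF was detected with fluorescent anti-GST. Each ungapped 8-mer (which stands for itself and its reverse complement) is scored by the PBM enrichment score (E-score), a modified Wilcoxon-Mann-Whitney statistic from -0.5 to +0.5, computed with the Universal PBM Analysis Suite. Scale: above 0.35 generally sequence-specific binding.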
row,Sequence,PBM E-score
1,GGCCAGCA,-0.245
2,ATGCAGCG,-0.0614
3,AAAACGAC,-0.0836
4,AGAATAGG,0.0888
5,AGAGGATA,-0.0686
6,AGTGGTAC,-0.204
7,ATGATCCG,0.0651
8,CCTGCCAG,-0.275
9,ACGTTCCG,-0.177
10,GTTCCGGA,-0.223
11,ACGGGGAT,-0.182
12,AACGAATA,-0.0884
13,CACCCTCG,-0.0792
14,GCAGTAGC,-0.307
15,TTGGAAAA,0.145
16,AGGCAATA,0.0144
17,CTTGGGTC,-0.295
18,GAGGTCCA,-0.231
19,CAAACTGG,-0.234
20,ACGCGAGC,-0.00439
21,AGCTGTTG,0.135
22,TCGAGTAA,0.214

row,Sequence,PBM E-score
1,ATGAGAAG,0.00938
2,AGGCGCCT,0.207
3,CCACATGG,-0.126
4,CACGTGTA,0.099
5,GACATCTA,0.0419
6,AGGAGAAG,-0.154
7,CTTGTCAA,0.046
8,AATAATAT,0.305
9,AGCCATTC,-0.0981
10,AGTACGAC,-0.0317
11,CTAGGGAC,-0.189
12,CAGCCATA,-0.131
13,GTGTCTCA,-0.0562
14,CACAGAAC,-0.102
15,AAGTCTGA,-0.085
16,CGAGGCCG,-0.182
17,ACCACGCC,-0.128
18,GCCTACGA,-0.0168
19,TCGACCGA,-0.144
20,GTATCGTA,0.133
21,CGAATAAG,-0.097
22,CAACACGA,0.0554

row,Sequence,PBM E-score
1,CAAGTCCA,-0.255
2,AACGCAAG,0.00296
3,CGGCCCGA,-0.1
4,CAACCCCC,-0.336
5,AATCAGTC,0.11
6,CAGACCGC,-0.00344
7,ACTATCAG,0.0591
8,CACATTCA,-0.168
9,AGATCTCG,-0.0826
10,CCAAAAAC,0.14
11,CAATTGGA,-0.0723
12,ATGGTTTC,0.0704
13,ACCGGGCG,-0.364
14,ATGCTAGC,0.104
15,AGTACTGA,0.209
16,CTTATAGA,0.0342
17,TAAGTCAA,0.0153
18,GACAATCC,0.0764
19,AAGCAAGA,0.0824
20,ACCATTGA,-0.00364
21,AGACGTCC,-0.00823
22,ATCTGAAA,0.0964

row,Sequence,PBM E-score
1,CCCTGTAG,-0.202
2,CACCGGGG,-0.276
3,GATACTGC,-0.0133
4,ATTCACTG,0.0163
5,AGCGTGCA,-0.103
6,CTAATGGC,-0.0382
7,CGGTGGGA,-0.166
8,CCCACAAC,-0.0168
9,ATAGGCCA,-0.209
10,AAAACTCT,0.0295
11,CACTCGCA,-0.102
12,CCGTTTTA,0.148
13,CCAATTGG,-0.0187
14,GACTAACC,-0.11
15,GCTGCTTA,-0.0833
16,ACATAGTG,0.0798
17,ACGAAACG,0.202
18,CACTCAAC,0.0759
19,GGTGGATA,-0.0848
20,TAGATAAA,0.0886

# From the supplement of paper PMC3334620
